The record followed here is the supplement of paper PMC12297408.

The experiment deals with Plasmodium falciparum NF54/iGP1_RE9H ulg8 stage V gametocytes. As to the kind of experiment: gametocyte viability (luciferase signal relative to DMSO control) (% of DMSO control); higher = less gametocytocidal activity, active = 50 or less. As to conditions: exposure time: 72 h. The method, boiled down:
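Viability was calculated relative to the mean of DMSO vehicle wells on each plate. Day-12 stage V gametocytes of line NF54/iGP1_RE9Hulg8 (~2.5% gametocytemia, 3% hematocrit, 0.5% Albumax II medium) were exposed in 96-well plates to compounds at final 10 µM or 1 µM, one well each, for 72 h at 37 °C. Luminescence was then read on an IVIS Lumina II after D-luciferin addition.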

Where a name gives a salt, the structure may show the parent alone. The campaign covered roughly 1,300 compounds. About 40 (3%) showed activity. The list shows a part of the results.

Turning to `CCN[C@@H](C)Cc1cccc(C(F)(F)F)c1` [Dexfenfluramine hydrochloride], the gametocyte viability reads like this: (concentration: 1 µM) inactive: 95.2; (concentration: 10 µM) inactive: 90.6.
The corresponding values for `CC[C@@H](C(N)=O)N1CCCC1=O` [Levetiracetam] are inactive: 83.8 and inactive: 85.3.
The corresponding values for `COc1ccc(C(=O)N2CCCC2=O)cc1` [Aniracetam] are inactive: 80.6 and inactive: 85.7.
With `C[C@]12CCC(=O)C=C1CC[C@@H]1[C@@H]2C(=O)C[C@]2(C)C(=O)CC[C@@H]12` [Adrenosterone], the gametocyte viability (concentration: 1 µM) is inactive: 94.8 and the gametocyte viability (concentration: 10 µM) is inactive: 94.5.
For the molecule `C[N+]1(C)CCOC(O)(c2ccc(-c3ccc(C4(O)C[N+](C)(C)CCO4)cc3)cc2)C1` (stereo unspecified) [Hemicholinium bromide], the gametocyte viability is inactive: 93.8 (concentration: 1 µM) and inactive: 92.6 (concentration: 10 µM).
The corresponding values for `CCCN1C[C@H](CSC)C[C@@H]2c3cccc4[nH]cc(c34)C[C@H]21` [Pergolide mesylate] are inactive: 78.2 and inactive: 82.3.
Consider `COc1ccc(CCN)cc1OC` [Homoveratrylamine], for which the gametocyte viability by setting is: (concentration: 1 µM) inactive: 84.2; (concentration: 10 µM) inactive: 78.3.
The corresponding values for `c1ccc2nc(N3CCNCC3)ccc2c1` [Quipazine dimaleate salt] are inactive: 90.4 and inactive: 71.9.
The corresponding values for `C[N+](C)(C)CCCCCCCCCC[N+](C)(C)C` [Decamethonium bromide] are inactive: 90.1 and inactive: 82.8.
The matching figures for `CN1C[C@H](C(=O)N[C@]2(C)O[C@@]3(O)[C@@H]4CCCN4C(=O)[C@H](Cc4ccccc4)N3C2=O)C[C@@H]2c3cccc4[nH]cc(c34)C[C@H]21` [Dihydroergotamine tartrate]: inactive: 66.8 and active: 42.4.
Regarding `C[N+]1(C)[C@@H]2CC[C@H]1C[C@@H](OC(=O)C(CO)c1ccccc1)C2` (stereo partly specified) [Methylatropine nitrate], the gametocyte viability (concentration: 1 µM) is inactive: 81.3 and the gametocyte viability (concentration: 10 µM) was inactive: 90.8.
The corresponding values for `CC(CCc1ccccc1)NC(C)C(O)c1ccc(O)cc1` (stereo unspecified) [Nylidrin] are inactive: 97.7 and inactive: 97.8.
The corresponding values for `COc1cccc(C2(O)CCCCC2CN(C)C)c1` (stereo unspecified) [Tramadol hydrochloride] are inactive: 80.4 and inactive: 88.2.
The matching figures for `CC(=O)OC1CN2CCC1CC2` (stereo unspecified) [Aceclidine Hydrochloride]: inactive: 82.8 and inactive: 86.9.
For `CCCC[N+]1(C)[C@@H]2CC(OC(=O)[C@H](CO)c3ccccc3)C[C@H]1[C@@H]1O[C@@H]12` (stereo partly specified) [Butylscopolammonium (n-) bromide], the gametocyte viability is, setting by setting: (concentration: 1 µM) inactive: 93.4; (concentration: 10 µM) inactive: 98.4.
The corresponding values for `CN(C)[C@@H]1C(=O)C(C(N)=O)=C(O)[C@@]2(O)C(=O)C3=C(O)c4c(O)ccc(Cl)c4[C@@](C)(O)[C@H]3C[C@@H]12` [Chlortetracycline hydrochloride] are inactive: 88.2 and inactive: 88.7.
The corresponding values for `CC[C@@]1(O)C(=O)OCc2c1cc1n(c2=O)Cc2cc3ccccc3nc2-1` [Camptothecine (S,+)] are inactive: 94.8 and inactive: 97.4.
The matching figures for `CCC(=O)O[C@@](Cc1ccccc1)(c1ccccc1)[C@@H](C)CN(C)C` [Levopropoxyphene napsylate]: inactive: 89.4 and inactive: 85.
For the molecule `CC(C)(C)NCC(O)c1cc(Cl)c(N)c(Cl)c1` (stereo unspecified) [Clenbuterol hydrochloride], the gametocyte viability is inactive: 85.7 (concentration: 1 µM) and inactive: 83.7 (concentration: 10 µM).
For the molecule `Fc1ccc(C(OCCN2CCN(CCCc3ccccc3)CC2)c2ccc(F)cc2)cc1`, the gametocyte viability (concentration: 1 µM) was inactive: 81.5 and the gametocyte viability (concentration: 10 µM) is inactive: 86.
The corresponding values for `COc1ccc(Cc2nccc3cc(OC)c(OC)cc23)cc1OC` [Papaverine hydrochloride] are inactive: 95 and inactive: 84.7.
The matching figures for `CCC1(CC)C(=O)C=CNC1=O` [Pyrithyldione]: inactive: 84.1 and inactive: 80.1.
The corresponding values for `Oc1cc(Cl)ccc1Oc1ccc(Cl)cc1Cl` [Triclosan] are inactive: 83 and inactive: 84.
In the case of `C[N+]1([O-])[C@@H]2C[C@@H](OC(=O)[C@H](CO)c3ccccc3)C[C@H]1[C@@H]1O[C@@H]12` (stereo partly specified) [Scopolamin-N-oxide hydrobromide], the gametocyte viability runs as follows: (concentration: 1 µM) inactive: 91.5; (concentration: 10 µM) inactive: 94.5.
The corresponding values for `C[C@]12N[C@H](Cc3ccccc31)c1ccccc12` [Dizocilpine maleate] are inactive: 82.2 and inactive: 83.7.
The matching figures for `CCN(CC)C(C)C(=O)c1ccccc1` (stereo unspecified) [Amfepramone hydrochloride]: inactive: 83.8 and inactive: 83.4.
The matching figures for `O[C@@H]1CCCC[C@H]1N1CCC(c2ccccc2)CC1` [L(-)-vesamicol hydrochloride]: inactive: 91.8 and inactive: 84.9.
Consider `COc1ccc(CCN2CCC(Nc3nc4ccccc4n3Cc3ccc(F)cc3)CC2)cc1` [Astemizole], for which the gametocyte viability is inactive: 92.7 (concentration: 1 µM) and active: 36.4 (concentration: 10 µM).
The matching figures for `CC(=O)O[C@H]1C[C@H](O[C@H]2[C@@H](O)C[C@H](O[C@H]3[C@@H](O)C[C@H](O[C@H]4CC[C@@]5(C)[C@H](CC[C@@H]6[C@@H]5C[C@@H](O)[C@]5(C)[C@@H](C7=CC(=O)OC7)CC[C@]65O)C4)O[C@@H]3C)O[C@@H]2C)O[C@H](C)[C@H]1O[C@@H]1O[C@H](CO)[C@@H](O)[C@H](O)[C@H]1O` [Lanatoside C]: inactive: 72.8 and inactive: 76.2.
The corresponding values for `C[C@]12CC[C@@H]3c4ccc(OC(=O)N(CCCl)CCCl)cc4CC[C@H]3[C@@H]1CC[C@@H]2O` [Estramustine] are inactive: 79.7 and inactive: 68.6.
The corresponding values for `NCC(O)c1ccc(O)cc1` (racemic) [(+,-)-Octopamine hydrochloride] are inactive: 91.4 and inactive: 86.2.
For `CN1[C@@H]2CC[C@H]1C[C@@H](OC1c3ccccc3CCc3ccccc31)C2` [Deptropine citrate], the gametocyte viability is inactive: 99.2 (concentration: 1 µM) and inactive: 86.5 (concentration: 10 µM).
The matching figures for `CCC1(c2ccc(N)cc2)CCC(=O)NC1=O` (stereo unspecified) [Glutethimide, para-amino]: inactive: 90 and inactive: 95.8.
For the molecule `CC[C@@]1([C@@H]2O[C@@H]([C@H]3O[C@@](O)(CO)[C@H](C)C[C@@H]3C)C[C@@H]2C)CC[C@H]([C@]2(C)CC[C@]3(C[C@H](O)[C@@H](C)[C@@H]([C@@H](C)[C@@H](OC)[C@H](C)C(=O)O)O3)O2)O1` [Monensin sodium salt], the gametocyte viability (concentration: 1 µM) is active: 28.8 and the gametocyte viability (concentration: 10 µM) is active: 0.676.
The matching figures for `CCN(C)C(=O)Oc1cccc([C@H](C)N(C)C)c1` [Rivastigmine]: inactive: 88.1 and inactive: 88.8.
The matching figures for `CN(C)C(=O)Oc1cc(OC(=O)N(C)C)cc(C(O)CNC(C)(C)C)c1` (stereo unspecified) [Bambuterol hydrochloride]: inactive: 91 and inactive: 94.7.
The corresponding values for `C[C@]12CC[C@H](O)C[C@@H]1CC[C@@H]1[C@@H]2CC[C@]2(C)C(=O)CC[C@@H]12` [Epiandrosterone] are inactive: 79.5 and inactive: 84.6.
Regarding `CCn1cc(C(=O)O)c(=O)c2cc3c(cc21)OCO3` [Oxolinic acid], the gametocyte viability was inactive: 85.4 (concentration: 1 µM) and inactive: 85.8 (concentration: 10 µM).
The matching figures for `Cc1cccc(C)c1NC1=NCCCS1` [Xylazine]: inactive: 88.8 and inactive: 90.9.
The corresponding values for `CN1CCN(C(=O)OC2c3nccnc3C(=O)N2c2ccc(Cl)cn2)CC1` (stereo unspecified) [Zopiclone] are inactive: 92.4 and inactive: 87.7.
The corresponding values for `Clc1ccc(C(OCCN2CCCCC2)c2ccccc2)cc1` (stereo unspecified) [Cloperastine hydrochloride] are inactive: 88 and inactive: 84.4.
As to `CC(Cc1ccccc1)NCCC(c1ccccc1)c1ccccc1` (stereo unspecified) [Prenylamine lactate], the gametocyte viability is, setting by setting: (concentration: 1 µM) inactive: 87.4; (concentration: 10 µM) inactive: 87.5.
The corresponding values for `CC(=O)NC1CCSC1=O` (racemic) [N-Acetyl-DL-homocysteine Thiolactone] are inactive: 90 and inactive: 94.
In the case of `C[C@]12CC[C@H](O)C[C@H]1CC[C@@H]1[C@@H]2C[C@@H](O)[C@]2(C)[C@@H](C3=CC(=O)OC3)CC[C@]12O` [Digoxigenin], the gametocyte viability is, setting by setting: (concentration: 1 µM) inactive: 74.9; (concentration: 10 µM) inactive: 72.3.
The corresponding values for `NC(=O)C[S+]([O-])C(c1ccccc1)c1ccccc1` (stereo unspecified) [Modafinil] are inactive: 82.7 and inactive: 82.6.
Turning to `CC(=O)OCC(=O)[C@H]1CC[C@H]2[C@@H]3CC[C@H]4C[C@H](O)CC[C@]4(C)[C@H]3C(=O)C[C@]12C` [Alfadolone acetate], the gametocyte viability runs as follows: (concentration: 1 µM) inactive: 87.8; (concentration: 10 µM) inactive: 85.2.
For `O=P1(NCCCl)OCCCN1CCCl` (stereo unspecified) [Ifosfamide], the gametocyte viability is inactive: 78.9 (concentration: 1 µM) and inactive: 84.9 (concentration: 10 µM).
The corresponding values for `CC(C)c1c(CN(C)C(C)Cc2ccccc2)n(C)n(-c2ccccc2)c1=O` (stereo unspecified) [Famprofazone] are inactive: 89.8 and inactive: 96.1.
Regarding `C=C(C)[C@@H]1[C@H]2OC(=O)[C@@H]1[C@]1(O)C[C@H]3O[C@]34C(=O)O[C@H]2[C@]14C` [Picrotoxinin], the gametocyte viability runs as follows: (concentration: 1 µM) inactive: 103; (concentration: 10 µM) inactive: 99.2.
The matching figures for `NC(=O)CN1CCCC1=O` [Piracetam]: inactive: 94.3 and inactive: 100.
The corresponding values for `C[C@]12Cc3c[nH]nc3C[C@@H]1CC[C@@H]1[C@@H]2CC[C@@]2(C)[C@H]1CC[C@]2(C)O` [Stanozolol] are inactive: 95.3 and inactive: 98.2.
Regarding `CC(C)C[C@H](CN)CC(=O)O` [Pregabalin], the gametocyte viability runs as follows: (concentration: 1 µM) inactive: 85.8; (concentration: 10 µM) inactive: 85.4.
The matching figures for `CC(C)(C)NCC(O)c1ccccc1Cl` (stereo unspecified) [Tulobuterol]: inactive: 86.2 and inactive: 89.9.
The matching figures for `CC(=O)OCC1=C(C(=O)O)N2C(=O)[C@@H](N)[C@H]2SC1` [Cephalosporanic acid, 7-amino]: inactive: 82.3 and inactive: 81.3.
For the molecule `CO[C@]12C[C@@H](COC(=O)c3cncc(Br)c3)CN(C)[C@@H]1Cc1cn(C)c3cccc2c13` [Nicergoline], the gametocyte viability is, setting by setting: (concentration: 1 µM) inactive: 81.4; (concentration: 10 µM) inactive: 86.8.
The matching figures for `C[N+]12CCC(CC1)C(OC(=O)C(O)(c1ccccc1)c1ccccc1)C2` (stereo unspecified) [Clidinium bromide]: inactive: 88.1 and inactive: 83.
The matching figures for `C[C@@]12N[C@@H](Cc3ccccc31)c1ccccc12` [(-)-MK 801 hydrogen maleate]: inactive: 89.9 and inactive: 90.4.
On to `NCCc1c[nH]c2ccc(O)cc12` [Serotonin hydrochloride], for which the gametocyte viability was inactive: 81.4 (concentration: 1 µM) and inactive: 86 (concentration: 10 µM).
The matching figures for `CCN(C(C)=O)c1cccc(-c2ccnc3c(C#N)cnn23)c1` [Zaleplon]: inactive: 89.6 and inactive: 83.7.
Consider `CCC(COC(=O)c1cc(OC)c(OC)c(OC)c1)(c1ccccc1)N(C)C` (stereo unspecified) [Trimebutine], for which the gametocyte viability (concentration: 1 µM) was inactive: 83.4 and the gametocyte viability (concentration: 10 µM) was inactive: 79.5.
The matching figures for `COc1cc([C@@H]2c3cc4c(cc3[C@H](O)[C@H]3COC(=O)[C@H]23)OCO4)cc(OC)c1OC` [Podophyllotoxin]: inactive: 97.6 and inactive: 88.6.
The corresponding values for `C[C@@H]1CC[C@H]2[C@@H](C)C(=O)O[C@@H]3O[C@@]4(C)CC[C@@H]1[C@]32OO4` [Artemisinin] are inactive: 70.1 and inactive: 63.8.
The matching figures for `CCC1(c2cccc(O)c2)CCCCN(C)C1` (stereo unspecified) [Meptazinol hydrochloride]: inactive: 83 and inactive: 81.4.
